# Test results published in PubChem BioAssay AID1948 (National Center for Advancing Translational Sciences (NCATS), 2009).
# Among all 110,000 compounds or so, about 20 (0.02%) were called active. The shares of active, inactive and inconclusive entries below differ from those in the screen. Calls come from the whole dose curve; as a rule, active = well fitted activation curve with a large enough effect; inconclusive = small, poorly fitted or top-dose-only effect; inactive = no such curve, though single readings can be large or run the other way. Potencies of inconclusive entries are left out as doubtful fits.
# Assay: qHTS Assay for Compounds that Induce Erasure of Genomic Imprints;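 for activity change, positive = activation: 0% = negative control wells on the plate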
# Details: mouse ES Peg3-LacZ reporter, beta-gal luminescence, 40 h; activity change, positive = activation: at 10.9 µM (top of the series) unless noted
# In short: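 Each well holds 300 Peg3LacZ-Neo (maternal) female ES cells incubated 40 h at 37C, 5% CO2. LacZ is measured by BetaGlo luminescence, with AC50 and maximum efficacy derived from dose-response curves.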
# Potency is the fitted concentration of half-maximal effect; tags give direction and shape of the fitted curve.
SMILES,"activity change, positive = activation",Potency
CCN1CCN(Cc2c(O)ccc3oc(C)c(C(=O)Nc4ccc(OC)cc4)c23)CC1,inconclusive: 45.5% [activator],–
Cc1ccc(C(C(=O)NC2CCCCC2)N(C)Cc2ccccc2)cc1 (stereo not given),inactive: -11.9%,–
CCOc1ccc(C(=O)c2cn(CC(=O)Nc3ccc(OC)cc3)c3cc4c(cc3c2=O)OCO4)cc1,inactive: -2.19%,–
CCOC(=O)c1c(C)[nH]c(C)c1S(=O)(=O)N1CCCC(C(=O)Nc2ncccc2C)C1 (stereo not given),inconclusive: 106% [activator],–
Cc1csc2nc(CNS(=O)(=O)c3cccnc3)cn12,–,"inconclusive [activator, single point]"
CCc1ccc(NC(=O)Cn2c(=O)n(Cc3ccc(C)cc3)c(=O)c3cccnc32)cc1,inconclusive: 31.6% [activator],–
Cc1cccc(N(CC(=O)NC2CCCC2)C(=O)CCCC(=O)Nc2ccccn2)c1,–,"inconclusive [activator, single point]"
CCOc1ccc(NC(=O)c2cnn(-c3ccccc3)c2-n2cccc2)cc1,inconclusive: 35.1% [activator],–
CNC(=O)C1CCN(C(=O)N2CC(C)Oc3ccc(Cl)cc32)CC1 (stereo not given),inactive: -6.56%,–
O=C(Nc1ccc2c(c1)OCO2)c1ccc(CN2CCOCC2)cc1,inactive: -20.8% [at 60.7 µM],–
CN(C)C(=O)c1ccc(-c2cc(NCc3cccs3)ncn2)cc1,–,"inconclusive [activator, partial curve]"
COc1ccc(NC(=O)CSc2nc(-c3cccs3)cc(C(F)(F)F)n2)c(OC)c1,inactive: -14%,–
O=C(CSCc1cnn(-c2ccccc2)c1-n1cccc1)NCc1ccc(F)cc1,inconclusive: 110% [activator],–
CCN(CC)CCCNC(=O)CSc1nc(-c2ccc(OC)cc2)cc(C(F)(F)F)n1,inactive: -12.8%,–
COCCn1c(=O)c(C)nc2cncnc21,–,"inconclusive [activator, single point]"
CCc1ccc(NC(=O)CSc2nc3n[nH]c(C)c3c(=N)n2-c2ccc(C)cc2)cc1,inactive: -15.3%,–
C[C@H]1CC[C@@H]2[C@@H](C)[C@H]3[C@H](C[C@H]4[C@@H]5CC=C6C[C@@H](O[C@]7(O[C@H]8O[C@@H](C)[C@@H](O)[C@@H](O)[C@@H]8O)C[C@@H](O[C@@H]8O[C@H](CO)[C@@H](O)[C@H](O)[C@@H]8O)[C@@H](O)[C@H](CO)O7)CC[C@]6(C)[C@H]5CC[C@@]34C)N2C1,–,"inconclusive [activator, single point]"
COc1ccc(-c2nc3cnc(N4CCOCC4)nc3n(C3CC3)c2=O)cc1,inactive: -5.54% [at 60.7 µM],–
CCc1ccc(C2=C(C)C(N3CCC(C(=O)Nc4cccc(OC)c4)CC3)=NS2(=O)=O)cc1,inconclusive: 33.5% [activator],–
COc1ccc2[nH]cc(CCNc3ncnc4ccc(-c5ccoc5)cc34)c2c1,–,"inconclusive [activator, full curve, poor fit]"
